# Experimental data reported in the supplement of paper PMC8728848.
# The other results are listed elsewhere or left out.
# B1: CGL (Crenomytilus grayanus), H2FH31 (protein)
# chain: MTTFLIKHKASGKFLHPYGGSSNPANNTKLVLHSDIHERMYFQFDVVDERWGYIKHVASGKIVHPYGGQANPPNETNMVLHQDRHDRALFAMDFFNDNIMHKGGKYIHPKGGSPNPPNNTETVIHGDKHAAMEFIFVSPKNKDKRVLVYA
# How the values were obtained:
# Experiment in all cases: glycan array binding signal (z-score within array); higher = stronger binding
# Conditions in all cases: glycan notation: IUPAC condensed, linker removed
# [1] = molecular target: GlcNAc(b1-3)Gal(b1-3)GalNAc
# Summary of the method: (§1)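 Negative Z-scores can be read as non-binding. The Z-score is calculated within each array and then averaged across arrays of one protein sequence at different concentrations or buffers and across linkers. Arrays, 3228 in all, were curated from the Consortium for Functional Glycomics database and kept only where the protein sequence was available.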
# GlcNAc(b1-3)Gal(b1-4)Glc = molecular target: GlcNAc(b1-3)Gal(b1-4)Glc
# Summary of the method: as §1
# [2] = molecular target: GlcNAc(b1-3)Gal(b1-4)GlcNAc
# Summary of the method: as §1
# [3] = molecular target: GlcNAc(b1-3)Gal(b1-4)GlcNAc(b1-2)Man(a1-3)[GlcNAc(b1-3)Gal(b1-4)GlcNAc(b1-2)Man(a1-6)]Man(b1-4)GlcNAc(b1-4)GlcNAc
# Summary of the method: as §1
# [4] = molecular target: GlcNAc(b1-3)Gal(b1-4)GlcNAc(b1-2)Man(a1-3)[GlcNAc(b1-3)Gal(b1-4)GlcNAc(b1-2)Man(a1-6)]Man(b1-4)GlcNAc(b1-4)[Fuc(a1-6)]GlcNAc
# Summary of the method: as §1
# [5] = molecular target: GlcNAc(b1-3)Gal(b1-4)GlcNAc(b1-2)[GlcNAc(b1-3)Gal(b1-4)GlcNAc(b1-6)]Man(a1-6)[GlcNAc(b1-3)Gal(b1-4)GlcNAc(b1-2)Man(a1-3)]Man(b1-4)GlcNAc(b1-4)GlcNAc
# Summary of the method: as §1
# [6] = molecular target: GlcNAc(b1-3)Gal(b1-4)GlcNAc(b1-3)Gal(b1-4)GlcNAc
# Summary of the method: as §1
# [7] = molecular target: GlcNAc(b1-3)Gal(b1-4)GlcNAc(b1-3)Gal(b1-4)GlcNAc(b1-2)Man(a1-3)[GlcNAc(b1-3)Gal(b1-4)GlcNAc(b1-3)Gal(b1-4)GlcNAc(b1-2)Man(a1-6)]Man(b1-4)GlcNAc(b1-4)GlcNAc
# Summary of the method: as §1
# [8] = molecular target: GlcNAc(b1-3)Gal(b1-4)GlcNAc(b1-3)Gal(b1-4)GlcNAc(b1-2)Man(a1-3)[GlcNAc(b1-3)Gal(b1-4)GlcNAc(b1-3)Gal(b1-4)GlcNAc(b1-2)Man(a1-6)]Man(b1-4)GlcNAc(b1-4)[Fuc(a1-6)]GlcNAc
# Summary of the method: as §1
# [9] = molecular target: GlcNAc(b1-3)Gal(b1-4)GlcNAc(b1-3)Gal(b1-4)GlcNAc(b1-2)[GlcNAc(b1-3)Gal(b1-4)GlcNAc(b1-3)Gal(b1-4)GlcNAc(b1-6)]Man(a1-6)[GlcNAc(b1-3)Gal(b1-4)GlcNAc(b1-3)Gal(b1-4)GlcNAc(b1-2)Man(a1-3)]Man(b1-4)GlcNAc(b1-4)[Fuc(a1-6)]GlcNAc
# Summary of the method: as §1
# [10] = molecular target: GlcNAc(b1-3)Gal(b1-4)GlcNAc(b1-3)Gal(b1-4)GlcNAc(b1-3)Gal(b1-4)GlcNAc(b1-2)Man(a1-3)[GlcNAc(b1-3)Gal(b1-4)GlcNAc(b1-3)Gal(b1-4)GlcNAc(b1-3)Gal(b1-4)GlcNAc(b1-2)Man(a1-6)]Man(b1-4)GlcNAc(b1-4)GlcNAc
# Summary of the method: as §1
# [11] = molecular target: GlcNAc(b1-3)Gal(b1-4)GlcNAc(b1-3)Gal(b1-4)GlcNAc(b1-3)Gal(b1-4)GlcNAc(b1-2)Man(a1-3)[GlcNAc(b1-3)Gal(b1-4)GlcNAc(b1-3)Gal(b1-4)GlcNAc(b1-3)Gal(b1-4)GlcNAc(b1-2)Man(a1-6)]Man(b1-4)GlcNAc(b1-4)[Fuc(a1-6)]GlcNAc
# Summary of the method: as §1
# [12] = molecular target: GlcNAc(b1-3)Gal(b1-4)GlcNAc(b1-3)Gal(b1-4)GlcNAc(b1-3)Gal(b1-4)GlcNAc(b1-2)[GlcNAc(b1-3)Gal(b1-4)GlcNAc(b1-3)Gal(b1-4)GlcNAc(b1-3)Gal(b1-4)GlcNAc(b1-6)]Man(a1-6)[GlcNAc(b1-3)Gal(b1-4)GlcNAc(b1-3)Gal(b1-4)GlcNAc(b1-3)Gal(b1-4)GlcNAc(b1-2)Man(a1-3)]Man(b1-4)GlcNAc(b1-4)[Fuc(a1-6)]GlcNAc
# Summary of the method: as §1
# [13] = molecular target: GlcNAc(b1-3)Gal(b1-4)GlcNAc(b1-3)Gal(b1-4)GlcNAc(b1-3)Gal(b1-4)GlcNAc(b1-3)Gal(b1-4)GlcNAc(b1-2)Man(a1-3)[GlcNAc(b1-3)Gal(b1-4)GlcNAc(b1-3)Gal(b1-4)GlcNAc(b1-3)Gal(b1-4)GlcNAc(b1-3)Gal(b1-4)GlcNAc(b1-2)Man(a1-6)]Man(b1-4)GlcNAc(b1-4)GlcNAc
# Summary of the method: as §1
# [14] = molecular target: GlcNAc(b1-3)Gal(b1-4)GlcNAc(b1-3)Gal(b1-4)GlcNAc(b1-3)Gal(b1-4)GlcNAc(b1-3)Gal(b1-4)GlcNAc(b1-2)Man(a1-3)[GlcNAc(b1-3)Gal(b1-4)GlcNAc(b1-3)Gal(b1-4)GlcNAc(b1-3)Gal(b1-4)GlcNAc(b1-3)Gal(b1-4)GlcNAc(b1-2)Man(a1-6)]Man(b1-4)GlcNAc(b1-4)[Fuc(a1-6)]GlcNAc
# Summary of the method: as §1
# [15] = molecular target: GlcNAc(b1-3)Gal(b1-4)GlcNAc(b1-3)Gal(b1-4)GlcNAc(b1-3)Gal(b1-4)GlcNAc(b1-3)Gal(b1-4)GlcNAc(b1-2)[GlcNAc(b1-3)Gal(b1-4)GlcNAc(b1-3)Gal(b1-4)GlcNAc(b1-3)Gal(b1-4)GlcNAc(b1-3)Gal(b1-4)GlcNAc(b1-6)]Man(a1-6)[GlcNAc(b1-3)Gal(b1-4)GlcNAc(b1-3)Gal(b1-4)GlcNAc(b1-3)Gal(b1-4)GlcNAc(b1-3)Gal(b1-4)GlcNAc(b1-2)Man(a1-3)]Man(b1-4)GlcNAc(b1-4)[Fuc(a1-6)]GlcNAc
# Summary of the method: as §1
# [16] = molecular target: GlcNAc(b1-3)Gal(b1-4)GlcNAc(b1-3)Gal(b1-4)GlcNAc(b1-3)GalNAc
# Summary of the method: as §1
# [17] = molecular target: GlcNAc(b1-3)Gal(b1-4)GlcNAc(b1-3)GalNAc
# Summary of the method: as §1
# [18] = molecular target: GlcNAc(b1-3)Gal(b1-4)GlcNAc(b1-3)[GlcNAc(b1-3)Gal(b1-4)GlcNAc(b1-3)]GalNAc
# Summary of the method: as §1
# [19] = molecular target: GlcNAc(b1-3)Gal(b1-4)GlcNAc(b1-6)[Gal(b1-3)]GalNAc
# Summary of the method: as §1
# [20] = molecular target: GlcNAc(b1-3)Gal(b1-4)GlcNAc(b1-6)[GlcNAc(b1-3)Gal(b1-3)]GalNAc
# Summary of the method: as §1
# [21] = molecular target: GlcNAc(b1-3)Gal(b1-4)GlcNAc(b1-6)[GlcNAc(b1-3)]Gal(b1-4)GlcNAc
# Summary of the method: as §1
# GlcNAc(b1-3)GalNAc = molecular target: GlcNAc(b1-3)GalNAc
# Summary of the method: as §1
# GlcNAc(b1-3)Man = molecular target: GlcNAc(b1-3)Man
# Summary of the method: as §1
# [22] = molecular target: GlcNAc(b1-3)[GlcNAc(b1-4)][GlcNAc(b1-6)]GlcNAc
# Summary of the method: as §1
# [23] = molecular target: GlcNAc(b1-3)[GlcNAc(b1-6)]Gal(b1-4)GlcNAc
# Summary of the method: as §1
# [24] = molecular target: GlcNAc(b1-3)[GlcNAc(b1-6)]GalNAc
# Summary of the method: as §1
# [25] = molecular target: GlcNAc(b1-4)Gal(b1-4)GlcNAc
# Summary of the method: as §1
# GlcNAc(b1-4)GlcNAc = molecular target: GlcNAc(b1-4)GlcNAc
# Summary of the method: as §1
# [26] = molecular target: GlcNAc(b1-4)GlcNAc(b1-4)GlcNAc
# Summary of the method: as §1
# [27] = molecular target: GlcNAc(b1-4)GlcNAc(b1-4)GlcNAc(b1-4)GlcNAc(b1-4)GlcNAc
# Summary of the method: as §1
# [28] = molecular target: GlcNAc(b1-4)GlcNAc(b1-4)GlcNAc(b1-4)GlcNAc(b1-4)GlcNAc(b1-4)GlcNAc
# Summary of the method: as §1
# [29] = molecular target: GlcNAc(b1-4)[GlcNAc(b1-6)]GalNAc
# Summary of the method: as §1
# [30] = molecular target: GlcNAc(b1-6)Gal(b1-4)GlcNAc
# Summary of the method: as §1
# GlcNAc(b1-6)GalNAc = molecular target: GlcNAc(b1-6)GalNAc
# Summary of the method: as §1
# [31] = molecular target: GlcNAc6S(b1-3)Gal(b1-4)GlcNAc
# Summary of the method: as §1
# Kdn(a2-3)Gal(b1-3)GalNAc = molecular target: Kdn(a2-3)Gal(b1-3)GalNAc
# Summary of the method: as §1
# Kdn(a2-3)Gal(b1-3)GlcNAc = molecular target: Kdn(a2-3)Gal(b1-3)GlcNAc
# Summary of the method: as §1
# Kdn(a2-3)Gal(b1-4)Glc = molecular target: Kdn(a2-3)Gal(b1-4)Glc
# Summary of the method: as §1
# Kdn(a2-3)Gal(b1-4)GlcNAc = molecular target: Kdn(a2-3)Gal(b1-4)GlcNAc
# Summary of the method: as §1
# [32] = molecular target: Kdn(a2-3)Gal(b1-4)[Fuc(a1-3)]GlcNAc
# Summary of the method: as §1
# Kdn(a2-6)Gal(b1-4)GlcNAc = molecular target: Kdn(a2-6)Gal(b1-4)GlcNAc
# Summary of the method: as §1
# [33] = molecular target: Man(a1-2)Man(a1-2)Man(a1-3)Man
# Summary of the method: as §1
# [34] = molecular target: Man(a1-2)Man(a1-2)Man(a1-6)[Man(a1-3)]Man
# Summary of the method: as §1
# Man(a1-2)Man(a1-3)Man = molecular target: Man(a1-2)Man(a1-3)Man
# Summary of the method: as §1
binder,measurement,setting,value
B1,glycan array binding signal (z-score),[1],-0.273
same,glycan array binding signal (z-score),GlcNAc(b1-3)Gal(b1-4)Glc,-0.382
same,glycan array binding signal (z-score),[2],-0.347
same,glycan array binding signal (z-score),[3],-0.386
same,glycan array binding signal (z-score),[4],-0.375
same,glycan array binding signal (z-score),[5],-0.384
same,glycan array binding signal (z-score),[6],-0.341
same,glycan array binding signal (z-score),[7],-0.346
same,glycan array binding signal (z-score),[8],-0.248
same,glycan array binding signal (z-score),[9],-0.342
same,glycan array binding signal (z-score),[10],-0.27
same,glycan array binding signal (z-score),[11],-0.272
same,glycan array binding signal (z-score),[12],-0.239
same,glycan array binding signal (z-score),[13],-0.309
same,glycan array binding signal (z-score),[14],-0.279
same,glycan array binding signal (z-score),[15],-0.245
same,glycan array binding signal (z-score),[16],-0.392
same,glycan array binding signal (z-score),[17],-0.312
same,glycan array binding signal (z-score),[18],-0.302
same,glycan array binding signal (z-score),[19],-0.354
same,glycan array binding signal (z-score),[20],-0.315
same,glycan array binding signal (z-score),[21],-0.407
same,glycan array binding signal (z-score),GlcNAc(b1-3)GalNAc,-0.4
same,glycan array binding signal (z-score),GlcNAc(b1-3)Man,-0.334
same,glycan array binding signal (z-score),[22],-0.327
same,glycan array binding signal (z-score),[23],-0.309
same,glycan array binding signal (z-score),[24],-0.372
same,glycan array binding signal (z-score),[25],-0.283
same,glycan array binding signal (z-score),GlcNAc(b1-4)GlcNAc,-0.34
same,glycan array binding signal (z-score),[26],-0.375
same,glycan array binding signal (z-score),[27],-0.255
same,glycan array binding signal (z-score),[28],-0.393
same,glycan array binding signal (z-score),[29],-0.363
same,glycan array binding signal (z-score),[30],-0.359
same,glycan array binding signal (z-score),GlcNAc(b1-6)GalNAc,-0.357
same,glycan array binding signal (z-score),[31],-0.086
same,glycan array binding signal (z-score),Kdn(a2-3)Gal(b1-3)GalNAc,-0.175
same,glycan array binding signal (z-score),Kdn(a2-3)Gal(b1-3)GlcNAc,-0.357
same,glycan array binding signal (z-score),Kdn(a2-3)Gal(b1-4)Glc,-0.327
same,glycan array binding signal (z-score),Kdn(a2-3)Gal(b1-4)GlcNAc,-0.329
same,glycan array binding signal (z-score),[32],-0.349
same,glycan array binding signal (z-score),Kdn(a2-6)Gal(b1-4)GlcNAc,-0.318
same,glycan array binding signal (z-score),[33],-0.378
same,glycan array binding signal (z-score),[34],-0.356
same,glycan array binding signal (z-score),Man(a1-2)Man(a1-3)Man,-0.451
